From PubChem BioAssay AID1347073 (National Center for Advancing Translational Sciences (NCATS), 2019)
Hit rate of the full screen: of about 45,000 compounds, about 200 (0.44%) were called active. Another 7% or so got no clear call; they are omitted. Calls follow the shape of the dose curve; as a rule, active = well fitted activation curve with a large enough effect; inconclusive = small, poorly fitted or top-dose-only effect; inactive = no such curve, though single readings can be large or run the other way. This is one part of the list.

Experiment: qHTS of TDP-43 Inhibitors: NCGC Sytravon Library Screen; also: 0% is about no effect; nearly all actives have a fitted effect of over 55% in size
Conditions: yeast TDP-43 toxicity rescue, BacTiter-Glo growth, 24 h; series mostly up to 46.1 µM; growth rescue (activation): at the top concentration
How it was run: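 TDP-43-expressing yeast, pregrown in raffinose, seeded at OD600 0.02 in galactose medium with compound for 24 hr at 30 deg C. Growth read by BacTiter-Glo luminescence, so rescue of toxicity appears as activation.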

Row | Compound | growth rescue (activation)
1 | CCc1nnc(NS(=O)(=O)c2ccc(NC(=O)/C=C/C(=O)O)cc2)s1 | inactive: -20%
2 | O=C(N/N=C/c1ccccn1)c1ccc(NC(=O)c2ccccc2Cl)cc1 | inactive: 11.9%
3 | Cc1ccc(CNC(=O)CN2C(=O)NC(C)(c3ccccc3Cl)C2=O)cc1 (stereo not drawn) | inactive: 6.8%
4 | CC1(C)CC(=O)C2=C(C1)C(c1cn(-c3ccccc3)nc1-c1ccccc1)C(C#N)=C(N)O2 (stereo not drawn) | inactive: 11%
5 | NNc1ccc(Cc2ccc(Cl)cc2Cl)nn1 | inactive: 24%
6 | CC(NC(=O)/C=C/c1ccc(Br)cc1)c1ccc(Cl)cc1 (stereo not drawn) | inactive: 3.64%
7 | Cc1cccc(N)c1-c1c(C)cccc1N | inactive: 6.12%
8 | O=C(CNC(=O)c1ccc(F)cc1)N/N=C/c1cccnc1 | inactive: 0.713%
9 | N#Cc1cc(C(=O)c2ccccc2O)cn(-c2nccs2)c1=O | inactive: -7.44%
10 | COc1cc(CN2CCC(C(=O)NC(c3ccccc3)c3ccsc3)CC2)cc(OC)c1 (stereo not drawn) | inactive: -5.11%
11 | O=C(NCc1n[nH]c(=S)n1-c1ccc(Br)cc1)c1ccc(S(=O)(=O)N2CCOCC2)cc1 | inactive: 5.11%
12 | COC(=O)c1cc(C(=O)OC)cc(N2C(=O)CN=C2Nc2nc(C)cc(C)n2)c1 | inactive: -7.77%
13 | CCN(CC)c1ccc(NS(=O)(=O)c2ccc(OC)cc2)cc1 | inactive: -1.76%
14 | CCCc1cc(=O)[nH]c(SCC(=O)N2CCN(S(=O)(=O)c3ccc(C)cc3C)CC2)n1 | inactive: 12.1%
15 | Cc1ccc(OCC(=O)NNC(=O)CSc2nnc(-c3ccc(C)cc3)n2C)cc1 | inactive: 5.23%
16 | COc1cccc(N2C(=O)[C@H]3C(C(=O)c4cnccn4)=NN[C@H]3C2=O)c1 | inactive: -3.91%
17 | COc1ccc(Nc2nc(C)cc(C)c2C(N)=O)cc1OC | inactive: 4.65%
18 | S=C(NCc1ccccc1)NNc1nc2ccccc2[nH]1 | inactive: 23.5%
19 | Cc1cnc(C(=O)OCc2c(C)cc(C(C)(C)C)cc2C)cn1 | inactive: -23.8%
20 | COc1cc(NS(=O)(=O)c2ccc3[nH]c(=O)oc3c2)cc(OC)c1 | inactive: -6.24%
21 | Fc1cccc(/C=N/NC(=S)Nc2ccccc2Cl)c1 | inactive: 0.31%
22 | O=[N+]([O-])c1cc(S(=O)(=O)N2CCCC2)ccc1SCCO | inactive: 4.95%

Row | Compound | growth rescue (activation)
23 | OC(c1ccc(Cl)c(Cl)c1)c1ncc(-c2cccc(F)c2)[nH]1 (stereo not drawn) | inactive: 8.71%
24 | CC(C)NC(=O)C1(C)CCN1C(=O)c1cccc(F)c1 (stereo not drawn) | inactive: 8.22%
25 | O=C(NCCc1c[nH]c2ccccc12)c1cnccn1 | inactive: 2.69%
26 | Cc1cc(CSc2ccccc2C(=O)O)on1 | inactive: 2.82%
27 | COc1ccc(C(=O)N2CCCC(c3ccccc3)=N2)cc1 | inactive: 2.44%
28 | CCC(=O)c1ccccc1OCCN1CCN(CC)CC1 | inactive: -8.47%
29 | O=C(CSc1ncccn1)c1ccccc1Br | inactive: 7.58%
30 | Cc1cc(C)n2ncc(C(=O)NC3CCCCC3)c2n1 | inactive: 0.625%
31 | COCCOc1ccc(C(F)(F)F)cc1NC(=O)c1ccc(C(F)(F)F)cc1 | inactive: -14.8%
32 | CC(OC(=O)C1=COCCO1)C(=O)Nc1cccc(S(=O)(=O)N2CCOCC2)c1 (stereo not drawn) | inactive: 0.0075%
33 | CCSC1=N/C(=C\c2ccccc2)C(=O)N1c1ccc(OC)cc1 | inactive: 4.74%
34 | COCCNC(=O)C1CCCN(C(=O)c2ccnc(Cl)c2)CC1 (stereo not drawn) | inactive: 7.11%
35 | CC1CC(C)CN(C(=O)C(Cc2ccccc2)n2cccc2)C1 (stereo not drawn) | inactive: 17.3%
36 | O=C(NC1CCCC1)C(c1ccncc1)N(C(=O)Cn1nnc(-c2ccccc2F)n1)c1cccc(F)c1 (stereo not drawn) | inactive: -1.88%
37 | COC(=O)c1ccc(N)nc1 | inactive: 0.557%
38 | CN1CCC(NCCC(c2ccc(F)cc2)c2ccc(Cl)cc2)CC1 (stereo not drawn) | inactive: 7.51%
39 | CNC(=O)c1nc(C)n(-c2ccc([N+](=O)[O-])cc2)n1 | inactive: -18.2%
40 | O=C(NCCN1CCOCC1)c1ccc2c(c1)N(Cc1ccc(Cl)cc1)C(=O)CS2 | inactive: 12.4%
41 | CSc1cccc(NC(=S)N2CCCN(Cc3ccccc3F)C2)c1 | inactive: 12.5%
42 | Nc1ccc(Oc2ccc3c(c2)C(=O)N(CC2CCCO2)C3=O)cc1 (stereo not drawn) | inactive: 36.8%
43 | CCCNC(=O)C1(C)CCCN(Cc2ccc(C#N)cc2)C1 (stereo not drawn) | inactive: 1.04%
44 | CCOC(=O)N1CCN(C(=O)C2CCN(S(=O)(=O)c3cc(C)ccc3OC)CC2)CC1 | inactive: -2.12%

Row | Compound | growth rescue (activation)
45 | Cc1cccn2c(=O)c3cc(C(=O)NCCCOC(C)C)sc3nc12 | inactive: 1.33%
46 | Cc1ccc(C(=O)N2CCCC(CCC(=O)N3CCN(c4ccccn4)CC3)C2)cn1 (stereo not drawn) | inactive: -10.4%
47 | Cc1nn(-c2ccc(F)cc2)c(Cl)c1/C=C(/CC(=O)O)c1nc2ccccc2s1 | inactive: -87.9%
48 | CN(C)NC(=S)NC1(C)CCS(=O)(=O)C1 (stereo not drawn) | inactive: 6.36%
49 | CN(CCc1ccccn1)C(=O)c1ccc(OC(F)(F)F)cc1 | inactive: 2.37%
50 | Cc1ccc(CNC(=O)c2ccc(N3Cc4ccccc4Oc4ncccc43)s2)cc1 | inactive: 6.54%
51 | Cc1cccc(NC(=O)C2C3C=CC4(O3)C2C(=O)N(CCCN2CCCC2)C4C(=O)NC2CCCC(C)C2C)c1 (stereo not drawn) | inactive: 9.58%
52 | Cc1ccc(C(=O)N/C(=C\c2ccco2)C(=O)N2CCSCC2)cc1C | inactive: 24%
53 | O=C(CN1CCN(S(=O)(=O)c2ccccc2)CC1)NC1CC1 | inactive: 6.21%
54 | COC(=O)c1ccccc1NC(=O)c1cn(-c2ccc(C)c(C)c2)c(=O)c2ccccc12 | inactive: 15.9%
55 | CC(C)CC(=O)Nc1cccc(NC(=O)c2ccccc2Cl)c1 | inactive: 19.3%
56 | CN(C)C(=O)COc1ccc(C(=O)/C=C/c2cccnc2)cc1 | inactive: 6.74%
57 | CCC(Br)C(=O)Nc1ccc(OC)cc1 (stereo not drawn) | inactive: 30%
58 | COCCNC(=O)C1(C)Cc2c(-c3ccc(NC(C)=O)cc3)ccnc2O1 (stereo not drawn) | inactive: 0.43%
59 | CCCN1C(=O)c2cc(C(=O)Nc3ccccc3OC)ccc2C1Nc1ccccc1OC (stereo not drawn) | inactive: 5.35%
60 | Fc1ccccc1NC(=S)NNc1ncc(C(F)(F)F)cc1Cl | inactive: 18.1%
61 | COc1ccc(NC(=O)c2cccc(N3C(=O)C4C5C=CC(C5)C4C3=O)c2)cc1Cl (stereo not drawn) | inactive: 1.84%
62 | COc1ccccc1C1CC(=O)n2c(nc(-c3ccccc3)c2-c2ccccc2)S1 (stereo not drawn) | inactive: -29%
63 | CCCS(=O)(=O)NC(=O)C1(C)CCCN(C(=O)c2ccc3ccccc3n2)C1 (stereo not drawn) | inactive: 0.57%
64 | O=C(CCNC(=O)c1ccco1)Nc1ccc(F)c(Cl)c1 | inactive: -2.17%
65 | O=C(Nc1ccc(SC(F)F)cc1)C12CCC(CC1)C2 | inactive: 8.59%
66 | COc1cc(/C=N/n2cnnc2)ccc1OCCSc1ccc(C)cc1 | inactive: 16.4%

Row | Compound | growth rescue (activation)
67 | O=C(NCCN1CCOCC1)c1ccccc1OCc1ccccc1 | inactive: -21.7%
68 | OC(c1cccc(Cl)c1)c1nc(-c2cc3ccccc3o2)cs1 (stereo not drawn) | inactive: -19.1%
69 | Cc1ccc(CN2CCN(Cc3ccc(OCCO)cc3)CC2CCO)o1 (stereo not drawn) | inactive: 11.1%
70 | CCOc1ccc(N2C(=O)CN=C2Nc2ccccc2F)cc1 | inactive: 10.7%
71 | CCN(c1cccc2ccccc12)S(=O)(=O)c1ccc(Cl)nc1 | inactive: 11.4%
72 | CCC(C)(C)NC(=O)C(c1cccc(OC)c1OC)N(Cc1ccccc1)C(=O)CCC(=O)Nc1cc(C)on1 (stereo not drawn) | inactive: 11.2%
73 | CC1CCN(C(=S)c2cccc([N+](=O)[O-])c2)CC1 | inactive: 17.8%
74 | CCOC(=O)c1c(NC(=O)/C=C/C(=O)O)sc(C)c1-c1ccc(C)c(C)c1 | inactive: -4.56%
75 | CCn1c(C(=O)Nc2cc(Cl)ccc2C)cc2sc(Cl)cc21 | inactive: 0.427%
76 | Cc1nn(Cc2ccccc2)c2c1C(c1cccnc1)C(C#N)=C(N)O2 (stereo not drawn) | inactive: -9.04%
77 | O=C(OC1CCCCC1)c1cc2ccccc2oc1=O | inactive: -2.51%
78 | N#Cc1ccccc1Sc1ccccc1C(=O)OCC(=O)N1CCN(C(=O)c2ccco2)CC1 | inactive: -3.32%
79 | Cc1ccc(-c2nn3c(-c4ccccc4)nnc3c3ccccc23)cc1 | inactive: 0.964%
80 | O=C(COc1ccc(Br)cc1F)NC1CC1 | inactive: 32.8%
81 | CC(C)CNC(=O)c1cc(=O)[nH]c2ccc(S(=O)(=O)Nc3ccc(F)cc3)cc12 | inactive: 13.2%
82 | C=CCN(c1ccccc1)S(=O)(=O)c1cccc(C(=O)Nc2nnc(SCC)s2)c1 | inactive: 5.87%
83 | COc1ccccc1-c1cc2nc(NCCc3ccc(S(N)(=O)=O)cc3)ccn2n1 | inactive: 6.42%
84 | CNC(=S)Nc1ccc(C(N)=O)cc1 | inactive: 17.5%
85 | CCn1c(COc2ccc(C)cc2)nnc1SCC(=O)NNC(=O)c1ccc(OC)cc1 | inactive: 23.2%
86 | COc1ccc(OCC(=O)NC2CCCCCCC2)cc1 | inactive: 18%
87 | Cc1ccc(NC(=S)N2CCC(c3ccccc3)C2)c(Cl)c1 (stereo not drawn) | inactive: 13.4%
88 | CC(C)(C)C(=O)Nc1ccc(C(=O)N/N=C/c2ccccc2OC(=O)c2ccc(Cl)cc2)cc1 | inactive: 8.44%

Row | Compound | growth rescue (activation)
89 | COC(=O)CNC(=O)c1ccc2c(c1)S(=O)(=O)c1ccccc1C2=O | inactive: 16.5%
90 | CN(C)S(=O)(=O)c1cccc(NC(=S)NC(=O)c2ccco2)c1 | inactive: 23.8%
91 | COc1cccc(C(=O)NNC(=O)C(=O)Nc2ccc(OC)cc2OC)c1 | inactive: -5.18%
92 | Cc1ccc(C)c2[nH]c(=O)c(CN(Cc3cccs3)C(=S)NCc3ccco3)cc12 | inactive: 4.99%
93 | CCOc1ccc(Br)cc1CSC(=N)N | inactive: -3.4%
94 | NS(=O)(=O)c1cccc(NC(=O)CC(NC(=O)c2ccccc2Cl)c2ccccc2)c1 (stereo not drawn) | inactive: 0.299%
95 | Cc1cccc2cc(CN(Cc3ccco3)C(=O)c3ccco3)c(=O)[nH]c12 | inactive: -2.35%
96 | Cc1cccc(C(=O)N[C@H](C(=O)Nc2nccs2)C(C)C)c1 | inactive: -3.53%
97 | N#CCCn1cnc2ccccc21 | inactive: -0.846%
98 | Cc1c(N2C(=O)C(=O)/C(=C(/O)c3ccc(Cl)cc3)C2c2ccccc2)c(=O)n(-c2ccccc2)n1C (stereo not drawn) | inactive: 8.73%
99 | CCCCC(=O)Nc1ccc(NC(=O)c2ccc([N+](=O)[O-])cc2Cl)cc1OC | inactive: 21.3%
100 | O=C(CCCn1cncn1)N1CCCC(Nc2ccc(F)cc2)C1 (stereo not drawn) | inactive: 17.8%
101 | CC(C)Oc1ccc(/C=C(\NC(=O)/C=C/c2ccco2)C(=O)NCCc2nc3ccccc3[nH]2)cc1 | inactive: 8.74%
102 | CC(C)CCn1cnc2c1c(=O)n(CC(=O)NC(N)=O)c(=O)n2Cc1ccccc1 | inactive: 15.5%
103 | CCN(CC)S(=O)(=O)c1ccc(C)c(NC(=O)Cn2c(=O)cnc3ccccc32)c1 | inactive: 0.178%
104 | COc1ccc(Cl)cc1N/C(N)=N/c1nc(C)cc(=O)[nH]1 | inactive: 2.26%
105 | CCCNC(=O)C1(C)CCCN(C(=O)c2cc(C(C)(C)C)nn2C)C1 (stereo not drawn) | inactive: -0.219%
106 | Cc1nn(-c2ccccc2)c(N2CCCC2)c1/C=N/NC(=O)c1cc(-c2cccs2)nc2ccccc12 | inactive: 1.79%
107 | CCN(CC)S(=O)(=O)c1cc(NC(=O)CCNC(=O)c2ccco2)ccc1C | inactive: -0.456%
108 | O=C(NCCNC(=O)c1ccccn1)c1cccc(F)c1 | inactive: -22.2%
